For 22 molecules, binding signal results are on record in article PMC12136788.

Some of the results follow.

T1: UNK ZnF1-3 (human, UniProt Q9C0B0 31-174)
T1 sequence: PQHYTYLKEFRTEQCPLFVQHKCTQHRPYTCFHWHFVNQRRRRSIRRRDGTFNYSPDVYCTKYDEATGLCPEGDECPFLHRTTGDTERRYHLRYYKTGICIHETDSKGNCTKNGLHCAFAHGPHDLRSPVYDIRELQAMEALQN

B1: chr4:107939044:107939045:-_ENSMUSG00000034636_ENSMUST00000043616|mus_hu|motif|central (ssRNA)
RNA: GGGAGUUCUACAGUCCGACGAUCACUGAUAAUGUCUGUAAUCGUGAUAUCAGCAUUCACACCUGUGGCAUCAAGUUCCACGGACUUGUGGUGGCAGAAAGCUUUCCGGAAAGCAACAGCAGAGAUCUUUGCUUUGCGAAUGCACAACAGAGGAUUGAGCAUCA
B2: 90179122_90179242_1308_CDS_ENSG00000171488_ENST00000370454|human|control|control (ssRNA)
RNA: GGGAGUUCUACAGUCCGACGAUCAGCAAAGUCAUUUUUCACAUCUGGAAUAUCAUCAAUUCCAGUCUCCUGACGGACAUACUCAAAGGAAUAUUCCCGUAGAGAACGGUAGAACAGCCAGUAUAAGGUAUAAAGGCACGUCAACAACAGAGGAUUGAGCAUCA
B3: 38556220_38556481_3198_CDS_ENSG00000131747_ENST00000423485|human|control|control (ssRNA)
RNA: GGGAGUUCUACAGUCCGACGAUCUCUUAAUCCAUAAUAUUUAAGUCUGAGUUCAAAAAAGUCUCUUAGAAUAUCCAACACCGUGUCAUAUUUCUUUAAACAGCCUACGUGGUCAAAAAGCACCAUAGAGUUGCAUGUGAGACUCAACAGAGGAUUGAGCAUCA
B4: chr11:95532463:95532464:+_ENSG00000166037_ENST00000540830|hu_hu|motif|central (ssRNA)
RNA: GGGAGUUCUACAGUCCGACGAUCCUUACUUGGGGAGCGUCGUAGAUCACUAUUAAGGAAAGGCUUAUCCGAAGGAUAUACGGCAUAUGGAGAUGAAGAAUGCCGAACCAUGCUUCCAUUAGACCUUGAUGGCUCAGCAAAGCUCAACAGAGGAUUGAGCAUCA
B5: 158550971_158552674_281_CDS_ENSMUSG00000026596_ENSMUST00000166172|mouse|control|control (ssRNA)
RNA: GGGAGUUCUACAGUCCGACGAUCGAUCGCUUCAUUCAGUGCCUGAGAUUCAGCAUCACAGCCAAACGGGCGGUGCAAAACUUCUGGACUACUGCCUCCAGUCUUGUCUCCCUCAAAUCCAUCCUCCACACAGCUGGCAAAGUGCAACAGAGGAUUGAGCAUCA
B6: chr4:122741918:122741919:-_ENSG00000145386_ENST00000274026|hu_hu|FALSE|FALSE (ssRNA)
RNA: GGGAGUUCUACAGUCCGACGAUCGUCUGGCUGUUUCUUCAUGUAACCCACUUUAGGUUUACAUUUAACCUCCAUUUCCCUAAGGUAUGUGUGAAUAUCCUCAUGGUAGUCUGGUACUUCAUUAACACUCACUGGCUUUUCAUCCAACAGAGGAUUGAGCAUCA
B7: chr15:25584193:25584194:-_ENSG00000114062_ENST00000438097|hu_mus|FALSE|FALSE (ssRNA)
RNA: GGGAGUUCUACAGUCCGACGAUCAUGACUACUGUGGUUCACUAUCUUACAGCCUUUUUGUACUGGGAUACUAUUACCAUCAAAUUAUCCCUCUUAUAUUUAUUUUUUAACUUUUUCUUUUUCUUUUUCUUUUUCUUUUUGUUUCAACAGAGGAUUGAGCAUCA
B8: chr7:140404665:140404666:+_ENSG00000090266_ENST00000247866|hu_hu|hu_hu_hu_mus_False|8_8 (ssRNA)
RNA: GGGAGUUCUACAGUCCGACGAUCUGCUCCUACUCGUCCAGAGAGUUUACAGUGUCAGUCCUCGUCAUCAGGAGGGAUUCCCAGUUCUUCAUCUGUCCACUGUGAAGGAUCUGGAUAUGAAAAGUGACCCAGCACCUCAUCCGACAACAGAGGAUUGAGCAUCA
B9: chr4:149991449:149991450:+_ENSMUSG00000039852_ENSMUST00000105680|mus_mus|FALSE|FALSE (ssRNA)
RNA: GGGAGUUCUACAGUCCGACGAUCGCGCUCGGCUGCCAGUCUGUCUGGGUAACUCAUCUCAGGCCGCAGCUGAGGACCUGCUAGUGCCAGUCUCUCCCGCUCCAAAGGGUUGAGGCCCGGGUGGAAAGAGGCAAAGGGGUGGGGCAACAGAGGAUUGAGCAUCA
B10: chr12:89993059:89993060:-_ENSG00000070961_ENST00000261173|hu_hu|motif|central (ssRNA)
RNA: GGGAGUUCUACAGUCCGACGAUCAGGUAUUUCUUCCUUUUGUGUUCCAUGACCAGCUUCUUUGAGGAAUUUUAAACGGCGGGUUGGAAUUGUUGAAAUAAGCUGGCCCCAGAGUAAUGUUCCCAUUCCUAGGAAUAUUGACCACAACAGAGGAUUGAGCAUCA
B11: chr7:99056824:99056825:-_ENSG00000241468_ENST00000394186|hu_hu|motif|central (ssRNA)
RNA: GGGAGUUCUACAGUCCGACGAUCUCAGUGGUAUUUGCGGAGCCGCUCGUGCUUGAGAUGCUUGUAGGAAAAGGAGUAGCGGAAGAGCACGUAGCAUGCCAGCACCAUGGUAAUCCCCGAGAUGCUCCCCUUCUUCACAUUGAUCAACAGAGGAUUGAGCAUCA
B12: chr15:102110757:102110758:+_ENSMUSG00000045665_ENSMUST00000051341|mus_hu|FALSE|FALSE (ssRNA)
RNA: GGGAGUUCUACAGUCCGACGAUCGUAGGGGGCCUGAAGCCAAUCAGCUGCCAGGGCCAGGAAGUAGACCUGAUAGAAGUCCAGUUGAAACCGAAGGAAGGAGGGAUUGCUGCAGGCCCUUCCAGGGGGUUUAGCCCGGCAUCUCAACAGAGGAUUGAGCAUCA
B13: chr1:186721242:186721243:-_ENSMUSG00000026620_ENSMUST00000027929|mus_hu|motif|central (ssRNA)
RNA: GGGAGUUCUACAGUCCGACGAUCAAAAUAACAAGUAUUAAAAUGUACCUUUACUAGUGGUUUUACAUCGCAUAUAUCACGGAUUAUGAAAGAAAAGUAGGCAAAUGCCCAAUCACAAAGCGGCACAUUAUAGGCAUAAUGAUGCAACAGAGGAUUGAGCAUCA
B14: 92119036_92119156_3663_CDS_ENSG00000127980_ENST00000248633|human|control|control (ssRNA)
RNA: GGGAGUUCUACAGUCCGACGAUCGCUCCGGUAUCUGCCUUUGAUAAUACUGAUAUCUGCCCUCAGUUGAUCUCUUUGUUCUUGUGUAAGUUCUUGGCAACCCUCUUGUGAAGCUGUCCUUAACACUGGAGGCUGUGAAAACAACAACAGAGGAUUGAGCAUCA
B15: chr17:23954396:23954397:+_ENSMUSG00000039218_ENSMUST00000088621|mus_mus|FALSE|FALSE (ssRNA)
RNA: GGGAGUUCUACAGUCCGACGAUCCUCUUUUAAUUCAGAAGGCUCCAAUCUGCUCUGCACCAGAAAAGAUUUAGAGUCUACUAAAGGAUAUAUGCUAGAGUCAGGUUUAGUCUUACUCUGCUCAGGAGACAUUCCUGACUUCAGCAACAGAGGAUUGAGCAUCA
B16: chr5:138606049:138606050:-_ENSMUSG00000029730_ENSMUST00000000505|mus_mus|FALSE|FALSE (ssRNA)
RNA: GGGAGUUCUACAGUCCGACGAUCUAGCUCCUCAUAUUCAUCCAGAGCUGCCUGGAACUGGGCUGGUGUGAAGCCACGAGAUAUGCAGCGCUGUUCAGCCUCAGAAAAGUGGACACUCCGCCCCCGUGACACCAAUUCACGGAUCAACAGAGGAUUGAGCAUCA
B17: 99063032_99064229_1972_CDS_ENSG00000152767_ENST00000319562|human|control|control (ssRNA)
RNA: GGGAGUUCUACAGUCCGACGAUCUUCAAAAUUCGGGAAUAUGAGACUUUUCAGUGCUUCCGGCAUGGCGUCCUCUUUGCUCACUGUGCUCUGAAACCACGAAGUGAUAACUUCGAGAUCCUUCAGAUAUGUUCGCUCGGUGGUCAACAGAGGAUUGAGCAUCA
B18: chr19:29101771:29101772:-_ENSMUSG00000024782_ENSMUST00000025696|mus_hu|FALSE|FALSE (ssRNA)
RNA: GGGAGUUCUACAGUCCGACGAUCAGCAGUAAGGCGUUGUUUAAUGACCUCAAAGGGCACAUUCAGGUUAAUCACUGUGUCGAUCUGAUAAGCUCUAUCUAGGGCUUCUGCCUGUGGAAGUGUCCUUGGAAAACCAUCCAACAGCAACAGAGGAUUGAGCAUCA
B19: chrX:91780989:91780990:-_ENSMUSG00000025151_ENSMUST00000026142|mus_hu|FALSE|FALSE (ssRNA)
RNA: GGGAGUUCUACAGUCCGACGAUCCUCUAGAUAGCUGUGUUUAGAAGGAAUCUGAGGCUUCAGCCUCACACAGGGGAAAGACUACUGCGAUUGAUAGCAAUAUCCAACAUCUCACUCAACCCAGAAGAAACCAAUGGCACCAAACAACAGAGGAUUGAGCAUCA
B20: 146889473_146889593_86_3pUTR_ENSG00000113657_ENST00000343218|human|control|control (ssRNA)
RNA: GGGAGUUCUACAGUCCGACGAUCGCAGCCGCCGGCAGCGUGCGCCGAGCCACAGUGACUGUGGCGGGAGGAGGCGCCUGAGCCUUCGCGCCAGAGGCGGCAGUGCUGCUCCGAUUCCUGCUUGUCCCUAGCGAGCCAGCGAGCCAACAGAGGAUUGAGCAUCA
B21: chr1:66480114:66480115:+_ENSMUSG00000015222_ENSMUST00000024639|mus_hu|mus_mus_mus_hu_True|1_48 (ssRNA)
RNA: GGGAGUUCUACAGUCCGACGAUCUGGCCUGUGGCGGAUGUUCUUCAGAGAGCCACAUUUGGAUGUCACAUGGCUUAGGUCUAUUUUCUUAGUAACAAUUUGUACCUGCCCCCCUUUAGGCUGGUAUUUGAUGUUGUCAGUUGACAACAGAGGAUUGAGCAUCA
B22: chr15:93570553:93570554:+_ENSG00000173575_ENST00000394196|hu_hu|FALSE|FALSE (ssRNA)
RNA: GGGAGUUCUACAGUCCGACGAUCUCUAAGGCCAUAGUGUAUCAUGUCAACCCUUGUUCACGUGCAGGUUUUAGGUGAUGCUAACUCCCUCUUUCUCAACCUGUUAUUUCUACCAACAAUGAAAUCUUUCAAAGCCAGACUCCACAACAGAGGAUUGAGCAUCA

The assay deals with T1, UNK ZnF1-3. Description: nsRBNS (natural sequence RNA bind-n-seq); RBNS binding buffer (assumed for nsRBNS): 25 mM Tris pH 7.5, 150 mM KCl, 3 mM MgCl2, 0.01% Triton X-100, 500 ug/ml BSA, 20 U/ml SUPERase-In, 4 C; UNK is unkempt and MSI1 is Musashi-1; names of the RNAs are library labels; protein concentration not given here; high values mean tight binding.
Turning to B1, the binding signal came out at 1.24 enrichment R.

Consider B2, for which the binding signal is 1.2 enrichment R.

For B3, the binding signal turned out to be 1.12 enrichment R.

Consider B4, for which the binding signal came to 0.879 enrichment R.

In turn, B5 registered a binding signal of 1.24 enrichment R.

Take B6: the binding signal came out at 0.371 enrichment R.

Molecule B7 showed a binding signal of 0.608 enrichment R.

B8: the binding signal worked out at 1.3 enrichment R.

As to B9, the binding signal is 0.994 enrichment R.

With B10, the binding signal worked out at 0.64 enrichment R.

With B11, the binding signal was 1.16 enrichment R.

B12: the binding signal was 0.951 enrichment R.

Regarding B13, the binding signal amounted to 0.878 enrichment R.

Regarding B14, the binding signal came to 0.665 enrichment R.

The molecule B15 displayed a binding signal of 0.571 enrichment R.

Take B16: the binding signal is 0.852 enrichment R.

In turn, B17 displayed a binding signal of 0.575 enrichment R.

For B18, the binding signal was 0.591 enrichment R.

The molecule B19 gave a binding signal of 1.18 enrichment R.

B20: the binding signal was 0.79 enrichment R.

As to B21, the binding signal turned out to be 0.498 enrichment R.

In the case of B22, the binding signal was found to be 0.789 enrichment R.
